In all, about 33,000 sequences were measured (“E-score (-0.5 to 0.5)”: median about -0.043, highest 2% from about 0.37 on). The list shows a part of the results.
molecular target: T1, Upc2 (UniProt Q12151); assay: PBM E-score (8-mer binding enrichment) (E-score (-0.5 to 0.5)); higher = stronger / more preferred TF binding; most listed sequences are background and not binding sites; details: protein concentration: 200 nM; construct: GST-full length
T1 sequence: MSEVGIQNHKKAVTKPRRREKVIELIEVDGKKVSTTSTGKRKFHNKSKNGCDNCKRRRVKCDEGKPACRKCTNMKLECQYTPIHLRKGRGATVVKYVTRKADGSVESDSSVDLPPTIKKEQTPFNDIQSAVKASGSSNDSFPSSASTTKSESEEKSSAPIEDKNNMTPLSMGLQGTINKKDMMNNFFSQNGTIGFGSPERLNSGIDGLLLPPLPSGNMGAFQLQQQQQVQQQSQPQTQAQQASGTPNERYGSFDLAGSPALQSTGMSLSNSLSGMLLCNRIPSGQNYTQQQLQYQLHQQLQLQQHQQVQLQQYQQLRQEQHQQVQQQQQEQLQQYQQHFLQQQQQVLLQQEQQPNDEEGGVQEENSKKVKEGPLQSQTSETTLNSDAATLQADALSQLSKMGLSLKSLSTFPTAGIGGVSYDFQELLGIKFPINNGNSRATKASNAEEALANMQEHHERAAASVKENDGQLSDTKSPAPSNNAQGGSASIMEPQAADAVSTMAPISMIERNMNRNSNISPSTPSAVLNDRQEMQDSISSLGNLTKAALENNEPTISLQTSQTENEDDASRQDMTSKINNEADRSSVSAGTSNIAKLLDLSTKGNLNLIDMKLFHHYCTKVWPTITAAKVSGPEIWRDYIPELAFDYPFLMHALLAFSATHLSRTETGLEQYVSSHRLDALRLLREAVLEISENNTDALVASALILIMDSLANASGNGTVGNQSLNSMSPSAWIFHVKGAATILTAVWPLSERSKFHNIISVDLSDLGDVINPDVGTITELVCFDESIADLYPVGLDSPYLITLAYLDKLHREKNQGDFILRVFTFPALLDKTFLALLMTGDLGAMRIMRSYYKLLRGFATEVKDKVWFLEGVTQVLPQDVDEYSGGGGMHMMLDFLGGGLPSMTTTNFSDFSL
Procedure: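 Universal 'all 10-mer' protein binding microarrays (Agilent AMADID 015681) probed with GST-tagged S. cerevisiae TFs (full-length or DBD) made by in vitro transcription/translation (PURExpress), about 100-200 nM. Bound TF was detected with fluorescent anti-GST. Each ungapped 8-mer (which stands for itself and its reverse complement) is scored by the PBM enrichment score (E-score), a modified Wilcoxon-Mann-Whitney statistic from -0.5 to +0.5, computed with the Universal PBM Analysis Suite. Scale: above 0.35 generally sequence-specific binding.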

| Sequence | PBM E-score |
| --- | --- |
| CACCCATC | -0.0809 |
| CTATAAAG | -0.2 |
| GATTTGCC | 0.00332 |
| TCAACTCA | -0.155 |
| GAGCCAAA | -0.162 |
| AATCAGGT | -0.0117 |
| AATCTCCC | -0.169 |
| AAGTTCAA | 0.0109 |
| AGCTACCA | -0.126 |
| AGTTTGGA | -0.014 |
| AAAATATA | 0.0385 |
| ATGCAAGG | -0.11 |
| CCCTTTGA | -0.304 |
| GCCGCACA | -0.0824 |
| ATATAACC | 0.118 |
| AAACCTAG | -0.0476 |
| GCAGCCCA | -0.13 |
| TAGGGACA | -0.217 |
| GGAAGAAA | -0.136 |
| AAGAAGGG | -0.0551 |
| GCCAGGAC | -0.212 |
| AATACGAA | 0.424 |
| CATTTAGC | -0.0255 |
| GTAGAAGA | -0.0124 |
| CCGCCCTA | -0.266 |

| Sequence | PBM E-score |
| --- | --- |
| GAAGAGAC | 0.031 |
| AACAGCTA | -0.193 |
| CACAACCC | -0.0428 |
| AGCGTGCG | 0.0869 |
| CCATATAA | 0.144 |
| ACGCCGAT | -0.0392 |
| AGCCAACT | -0.272 |
| GAGCGTAA | 0.185 |
| GGAAGACC | -0.169 |
| AACTGATT | -0.0765 |
| CACATAAG | -0.00689 |
| GCAAAGGC | -0.0992 |
| CACCGGGA | -0.188 |
| AGTATACT | 0.242 |
| ATTAGAAA | 0.0638 |
| TAATGATA | 0.171 |
| GGTGCCAC | -0.162 |
| AAAATGAT | 0.0942 |
| CTTTCCCA | -0.288 |
| ACGCTCTA | -0.0572 |
| CGCTGCGA | 0.0835 |
| AGCGTAAC | 0.219 |
| GACGAGTC | 0.0657 |
| CCGTTACG | 0.36 |
| AAAGTTGG | -0.137 |

| Sequence | PBM E-score |
| --- | --- |
| AATCTGCT | -0.138 |
| AGGTTGCC | -0.356 |
| AGGCACCT | -0.367 |
| CCTGGCCC | -0.203 |
| CTCAATCA | -0.153 |
| ACGTAACG | 0.268 |
| CTAAGTAA | -0.0347 |
| AGCGCAAG | -0.129 |
| CTCCGTCA | -0.233 |
| AGTGGGTC | -0.234 |
| ACTAATAT | 0.0386 |
| AACGCAAC | 0.141 |
| ATCGGTCG | 0.197 |
| GGTCTACA | -0.222 |
| AAAGCTCG | 0.209 |
| GTAAATGA | 0.146 |
| ATTCGGAC | 0.0896 |
| GGCACCAA | -0.0665 |
| GATGTAGA | -0.229 |
| ACATGAAA | -0.111 |
| CATATGGC | 0.0724 |
| CAGATGGC | -0.0004 |
| GGTCACTA | -0.113 |
| GTTGGTGA | 0.101 |
| ATTTGAGG | -0.127 |

| Sequence | PBM E-score |
| --- | --- |
| AATTACAT | 0.163 |
| CGGGACAA | -0.166 |
| AAATGTGC | 0.0298 |
| TGCGACCA | 0.0986 |
| GGCTCCGA | -0.194 |
| CAGGGAAC | 0.0954 |
| AAGAACCA | 0.132 |
| AATACGCT | 0.212 |
| AATTCAGT | -0.199 |
| AGCCAAAG | -0.193 |
| CGTGCAGA | 0.0495 |
| CCGTGTGA | -0.0414 |
| TCTCGGAA | 0.098 |
| AATTAAGG | -0.174 |
| CATTCGAG | 0.0954 |
| GTCGATAA | -0.0403 |
| AGATGGAC | -0.0857 |
| AAAGAAGT | -0.0114 |
| ACTGAGCA | -0.0623 |
| CAACTTGA | -0.046 |
| ATGGGGGA | -0.191 |
| GACTCATC | -0.154 |
| CAGGTGCC | -0.347 |
| ACGCACGG | 0.0208 |
| ATTCGGTA | 0.211 |

| Sequence | PBM E-score |
| --- | --- |
| AAACCTAA | 0.057 |
| ACAGGAAG | -0.188 |
| GAAGAACA | -0.132 |
| GAAGATTA | -0.101 |
| AACGAATT | 0.378 |
| TCATCACA | -0.0744 |
| ACACAGCT | -0.0599 |
| TAGGTGCA | -0.194 |
| CCAACAAA | 0.0592 |
| CATTGCAG | -0.141 |
| CGACGGTA | 0.238 |
| AGTTGACC | -0.0877 |
| CCAGAGAC | -0.123 |
| GATTTCTA | -0.0152 |
| GCTAACCC | -0.121 |
| CCCAGCAA | 0.0851 |
| ATAGCTAG | -0.148 |
| CGAGAGGA | 0.171 |
| GTCAAGGA | -0.262 |
| CAACGCTA | -0.198 |
| CTTTGGGC | -0.215 |
| CGCAACCA | -0.126 |
| ACGAATGG | 0.259 |
| AATGCGCT | -0.0343 |
| GATGAGCC | -0.124 |

| Sequence | PBM E-score |
| --- | --- |
| CACGGGTC | -0.082 |
| CGCCCCTC | -0.0285 |
| GGATTCCA | -0.0552 |
| GACGGTAC | 0.201 |
| CACCATGA | -0.165 |
| ATCACATA | 0.133 |
| CAGATCTA | -0.104 |
| ATGCAACG | 0.113 |
| AGGTATGA | -0.0712 |
| ACAACGTC | 0.0186 |
| GGCTTCCA | -0.329 |
| ATGATAAC | 0.0913 |
| CCGCTTTA | 0.127 |
| GCCCGAAA | 0.191 |
| ATAGATTA | 0.0552 |
| CATCGCAG | -0.104 |
| GCCGTCCA | -0.146 |
| AGACGCTG | -0.221 |
| GGGTGTTA | -0.16 |
| ATGACCGC | -0.213 |
| CTTTCCGA | 0.00625 |
| CGCGAACA | 0.142 |
| AATTGCTC | -0.122 |
| ACTGATCA | -0.157 |
| CACATTCG | 0.188 |

| Sequence | PBM E-score |
| --- | --- |
| ATTACCGA | 0.182 |
| AGTCCACG | -0.0933 |
| ATCGGTGA | 0.0867 |
| AGATTATC | -0.102 |
| AATGCTCA | -0.187 |
| CCGTTATC | -0.0315 |
| AGCGAAGG | 0.11 |
| CTCCCTAA | -0.00538 |
| GACGGAGC | -0.206 |
| ACAATCAA | 0.00599 |
| CCCTAGCG | -0.418 |
| AACGACAA | 0.402 |
| AAATGATG | 0.0371 |
| AATGTACT | -0.0221 |
| CTAGTCCC | -0.181 |
| TGACGGCA | -0.128 |
| CAACAGAC | -0.0636 |
| CAGAAAAC | 0.0505 |
| ACGGCTCG | 0.268 |
| GTCAACAC | -0.0877 |
| CAGCTGTA | -0.0208 |
| CACCGGTA | 0.0555 |

From the supplement of paper PMC3334620
